The results in this text go back to the supplement of paper PMC2702839.

Where a name gives a salt, the structure may show the parent alone. The list shows a part of the results.

In the test the test system is Schistosoma mansoni schistosomula. Put plainly: phenotypic hit in primary schistosomula screen (any phenotype vs DMSO control) (binary (1 = hit, 0 = no phenotype)); higher = active (phenotype induced). The following applies: 1 µM; time (d): 7.
As to `CCN(CC)CCCC(C)Nc1ccnc2cc(Cl)ccc12` (stereo not given) [Chloroquine phosphate], the phenotypic hit was inactive: 0. To `COc1ccc2c(c1)[C@@]1(C)CCC(=O)C[C@H]1CC2` [5beta-12-methoxy-4,4-bisnor-8,11,13-podocarpatrien-3-one] belongs inactive: 0; to `CCCCCC1C(=O)CCC1CC(=O)OC` (stereo not given) [dihydrojasmonic acid, methyl ester], inactive: 0. As to `CC(C)c1nc(N(C)S(C)(=O)=O)nc(-c2ccc(F)cc2)c1/C=C/[C@@H](O)C[C@@H](O)CC(=O)O` [rosuvastatin], the phenotypic hit is inactive: 0. To `C=C(CC)C(=O)c1ccc(OCC(=O)O)c(Cl)c1Cl` [ethacrynic acid] belongs inactive: 0; to `Nc1ccc(S(=O)(=O)NC(=O)c2ccccc2)cc1` [sulfabenzamide], inactive: 0. Turning to `Oc1ccc2c(c1)OC[C@]1(O)Cc3cc(O)c(O)cc3[C@H]21` [brazilin], the phenotypic hit is inactive: 0. For the compound `C=C(C)[C@@H]1CC[C@]2(C(=O)O)CC[C@]3(C)[C@H](CC[C@@H]4[C@@]5(C)CC[C@H](O)C(C)(C)[C@@H]5CC[C@]43C)[C@@H]12` [betulinic acid], the phenotypic hit was inactive: 0. To `C1N2CN3CN1CN(C2)C3` [methenamine] belongs inactive: 0; to `O=C(O)C1=C[C@@H](O)[C@@H](O)[C@H](O)C1` [shikimic acid], inactive: 0; to `O=C(/C=C(\O)c1ccccc1)c1ccccc1O` [2',beta-dihydroxychalcone], inactive: 0. To `c1ccc2c(c1)CCCC2C1=NCCN1` (stereo not given) [tetrahydrozoline hydrochloride] belongs inactive: 0. Consider `CCC(=O)O[C@H]1CC[C@H]2[C@@H]3CCc4cc(O)ccc4[C@H]3CC[C@]12C` [estradiol propionate], for which the phenotypic hit is inactive: 0.

Take `Oc1c(Br)cc(Br)c2cccnc12` [broxyquinoline]: the phenotypic hit is inactive: 0. `COc1ccc(-c2coc3cc(O)ccc3c2=O)cc1` [formononetin]: the phenotypic hit was inactive: 0. To `NC(=O)c1ccccc1O` [salicylamide] belongs inactive: 0. `COc1cc(O)c2c(=O)cc(-c3ccc(OC)c(-c4c(O)cc(O)c5c(=O)cc(-c6ccc(O)cc6)oc45)c3)oc2c1` [ginkgetin, k salt]: the phenotypic hit was inactive: 0.

`CCOC(=O)N1CCC(=C2c3ccc(Cl)cc3CCc3cccnc32)CC1` [loratadine]: the phenotypic hit was inactive: 0. The figure for `COC(=O)[C@H](c1ccccc1Cl)N1CCc2sccc2C1` [clopidogrel sulfate] is inactive: 0; for `C[C@]12CCC(=O)C=C1CC[C@@H]1[C@@H]2C(=O)C[C@@]2(C)[C@H]1CC[C@]2(O)C(=O)CO` [cortisone] it is inactive: 0.

As for `CC(=O)O[C@H]1CC[C@]2(C)C(C[C@H](OC(C)=O)[C@]3(C)C4=CC(=O)OC(c5ccoc5)[C@@]4(C)CCC23)C1(C)C` (stereo partly drawn) [3beta,7beta-diacetoxydeoxodeacetoxydeoxydihydrogedunin], the phenotypic hit is inactive: 0. To `CN(C)[C@@H]1C(O)=C(C(N)=O)C(=O)[C@@]2(O)C(O)=C3C(=O)c4c(O)cccc4[C@@](C)(O)[C@H]3C[C@@H]12` [tetracycline hydrochloride] belongs inactive: 0. To `O=C(O)C1CCCNC1` (racemic) [(±)-Nipecotic acid] belongs inactive: 0.

With `Cc1ccc(N(CC2=NCCN2)c2cccc(O)c2)cc1` [Phentolamine mesylate], the phenotypic hit was inactive: 0.

For the compound `CCc1ccc(CCOc2ccc(CC3SC(=O)NC3=O)cc2)nc1` (stereo not given) [pioglitazone hydrochloride], the phenotypic hit was inactive: 0. The figure for `CC(C)NCC(O)c1ccc(O)c(O)c1` (racemic) [(±)-Isoproterenol hydrochloride] is inactive: 0. The figure for `CO[C@H]1/C=C/O[C@@]2(C)Oc3c(C)c(O)c4c(O)c(c(/C=N/N5CCN(C)CC5)c(O)c4c3C2=O)NC(=O)/C(C)=C\C=C\[C@H](C)[C@H](O)[C@@H](C)[C@@H](O)[C@@H](C)[C@H](OC(C)=O)[C@@H]1C` [rifampin] is inactive: 0. `CC(=O)C1=C(O)C=C2Oc3c(C(C)=O)c(O)c(C)c(O)c3C2(C)C1=O` (stereo in doubt) [usnic acid]: the phenotypic hit is inactive: 0.

For the compound `C[C@@H]1CC[C@H]2C(C)(C)[C@H]3C[C@@]12CC[C@@]3(C)O` [cedrol], the phenotypic hit was inactive: 0.

Consider `CCCSc1ccc2[nH]c(NC(=O)OC)nc2c1` [albendazole], for which the phenotypic hit was inactive: 0. To `Cc1c(Cl)cccc1Nc1ccccc1C(=O)O` [tolfenamic acid] belongs inactive: 0; to `CC(=O)OCC1(C)CCC2(C)CCC3(C)C4=CCc5c(cc(OC(C)=O)c(OC(C)=O)c5C)C4(C)CCC3(C)C2C1` (stereo not given) [2,3,29-triacetoxy-24-nor-1,3,5,7-friedelatetraene], active: 1; to `CC[C@H]1OC(=O)[C@H](C)[C@@H](O[C@H]2C[C@@](C)(OC)[C@@H](O)[C@H](C)O2)[C@H](C)[C@@H](O[C@@H]2O[C@H](C)C[C@H](N(C)C)[C@H]2O)[C@](C)(O)C[C@@H](C)C(=O)[C@H](C)[C@@H](O)[C@]1(C)O` [erythromycin], inactive: 0.

With `COc1cc(/C=C/C=O)cc(OC)c1OC` [3,4,5-trimethoxycinnamaldehyde], the phenotypic hit is inactive: 0. For the compound `CC1=C(/C=C/C(C)=C/C=C/C(C)=C/C=C/C=C(C)/C=C/C=C(C)/C=C/C2=C(C)CCCC2(C)C)C(C)(C)CCC1` [beta-carotene], the phenotypic hit is inactive: 0. For the compound `CC1=CC(=O)[C@H]2C(C)(C)CCC[C@]2(C)[C@@]1(O)CCc1ccoc1` [solidagenone], the phenotypic hit is inactive: 0. Regarding `CC(C)(Oc1ccc(CCNC(=O)c2ccc(Cl)cc2)cc1)C(=O)O` [bezafibrate], the phenotypic hit was inactive: 0. The figure for `OCCN1CCN(CCCN2c3ccccc3Sc3ccc(C(F)(F)F)cc32)CC1` [Fluphenazine dihydrochloride] is inactive: 0; for `c1ccc(CC2=NCCN2)cc1` [tolazoline hydrochloride] it is inactive: 0; for `NCCCCC(=O)O` [5-Aminovaleric acid hydrochloride] it is inactive: 0. The figure for `COc1c(O)cc2occ(-c3ccc(O)cc3)c(=O)c2c1O` [tectorigenin] is inactive: 0; for `CC1(C)C=Cc2c(c3c(c4c(=O)c(-c5ccc(O)cc5)coc24)OC(C)(C)CC3)O1` [isoosajin] it is inactive: 0. The figure for `O=C1c2ccccc2C(=O)C1c1ccccc1` [phenindione] is inactive: 0; for `CC(C)[C@@H](C)/C=C/[C@@H](C)[C@H]1CC[C@H]2C3=CC=C4C[C@@H](O)CC[C@]4(C)[C@H]3CC[C@]12C` [ergosterol] it is inactive: 0; for `Clc1ccc2c(c1)C(N1CCNCC1)=Nc1ccccc1O2` [Amoxapine] it is inactive: 0.
